Whole data set: some 1,800 sequences, median “median log2 fold change of GCK-ALFA target abundance (FLAG IP / Myc IP barcode read proportion)” near 0.14, cut for the lowest 2% near -0.84. The list shows a part of the results.
T1: TRAF2, Q12933
T1 chain: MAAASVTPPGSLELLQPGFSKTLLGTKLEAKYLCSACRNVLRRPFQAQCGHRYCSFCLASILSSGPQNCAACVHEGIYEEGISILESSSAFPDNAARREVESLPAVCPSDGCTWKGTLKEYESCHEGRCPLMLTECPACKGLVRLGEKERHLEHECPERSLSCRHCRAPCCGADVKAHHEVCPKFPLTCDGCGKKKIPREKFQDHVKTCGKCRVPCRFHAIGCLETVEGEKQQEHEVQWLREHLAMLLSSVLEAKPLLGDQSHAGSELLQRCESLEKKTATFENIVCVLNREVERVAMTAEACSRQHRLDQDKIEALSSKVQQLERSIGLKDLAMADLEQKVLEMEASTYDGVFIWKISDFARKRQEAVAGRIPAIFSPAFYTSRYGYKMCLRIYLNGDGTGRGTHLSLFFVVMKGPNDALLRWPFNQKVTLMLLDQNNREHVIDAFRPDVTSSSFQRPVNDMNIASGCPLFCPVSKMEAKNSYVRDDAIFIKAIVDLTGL

B1: traf2_out_20_3_2071 (protein)
chain: KELEEEAERELERALELLKRAAELADEETAKRLEELIKRLKASRELSVDDRLVVVSEVRREVLELAEEAKAAGKEELAKELEEAAEALNRAAQLLYDILQ
B2: traf2_out_11_104_646 (protein)
chain: LTREQAREFNDFAMEANDKAKELLQEVADFLESRGHEEEAAKVRAELAHPGSGVSTFKNLLEELLPKLDEESRAVAEKAIKELEELQKKVSDKLNELEKK
B3: traf2_out_11_155_681 (protein)
chain: EEKQKLNNELVDKVTAIADELKAQVAAIAAEAAAAHPEHAAEIAATLAASAPFSWRTFAGTAAATFDRLGDAAAAARVRALLEEAQKKANEIVKEIEAKI
B4: traf2_out_13_95_1208 (protein)
chain: EEEKTRKLREKMNEIADELIDFIEEKAEEIEKATGNEEYKKDILSTLRRNGVRAAVALIKEYAKKDPKYKEVYEKAAEEAEAKIREAGRKAAEEIKRIEE
B5: traf2_out_18_167_1827 (protein)
chain: EEEKREELERLTDRLVAYSEIKRAALLAIEKLRTDPAAYPAALARTIELLDAVPEFRPWAERLRAAPEAEKEALLEEIAEAAQREANRLYKERERLLKEL
B6: traf2_out_11_155_765 (protein)
chain: SKEQEIWQELNDKVAEIVDEAEKEVRELIETDERLSPEEKAELLAILDEKRKYGLRTMMAALIARYKELGREDLAKKVQEILDKAQEKMSKAAIEAEKKI
B7: traf2_out_17_162_1507 (protein)
chain: SPLEELRRRIEEELEELRRELERLEKKMENLKSMSKEELSDLLVEASEAKARALRLAELVREHREELGEEEAERLIREAEEIAERLQRIANEAYKELLKK
B8: traf2_out_15_181_1335 (protein)
chain: MTPEEIAARVAELKAEIAELKAKAEEYLKKAEAVKDTDLTEALVYYSEARRAYLRIAELYKEIAELTGDEATYKKKIEEAEKKAEELQKKMNELYKKIEK
B9: traf2_out_14_166_1289 (protein)
chain: MTPEEIERIREIVDKLEPLTEEAVERAEEILEKNRDKLSPEQLAELERLLEIARRNIGSSAINALREMAEIFEKAGLEEAAEEFRRLAEELEEKLRELNK
B10: traf2_out_1_158_916 (protein)
chain: DTKKNLILAVVELVGRFNIESALENGDEETAEKLREVVEKVIETVKKLLIEENKSVEEVIKEIEKIVEEAQKKVDPETAAKIRQLGRQIISGIKQVEKLM
B11: traf2_out_17_162_1520 (protein)
chain: SALEERLAELEEELEELREELERLKEKLKNLSSMSKEELTDLLVEASEARRRALELAEELERLKPLIGEERAGELIEEAREIAEELGRIANEIYKELEKK
B12: traf2_out_20_3_2214 (protein)
chain: EELRAEVERELEEIERLLAEAAPRLAPEDLARLRALLEEARAALETDPRDALVALSELRRALLELADRARAAGDEELAALLEAAAEAANRAANLVYRLLE
B13: traf2_out_13_95_1054 (protein)
chain: SAETAEKINEIADEALEEALALLEEARAEVADDPEASAVLDEALRLAETKGISEAIHLLEEARAADPAHAERFAALIERLRAIRREAGRKVAEVLKEAEE
B14: traf2_out_20_3_2118 (protein)
chain: EELEEELEKELEEALKLLKEAAKLADKKTAKKLEKLAKRLKESRKLSPSDRLVVVSEVRREVRRLRLEAEKKGDKKLAKVLDEAAEELNRAANLLMKIIE
B15: traf2_out_11_155_705 (protein)
chain: EKKKELQNELVDKMIEIEDKLKKEVDKIADEAAKEHPEHAAEIAKVRKESAPFSGTSYARIMAEKFKELGLEEYAEKVEKLLEKAQKEKNKIYKEIEEKM
B16: traf2_out_20_3_2174 (protein)
chain: SELEKELEKKLEEAIKLLKEAAKAADKETAKRLKELIKRLKESRKLSYSDRLVEVSEIRREVLRLAEEAKKKGDEELAKLLEEAAEALNKAANILYKIIQ
B17: traf2_out_13_95_1060 (protein)
chain: SAETAAKINALADEAEERALALLDAAKAELADDPEAVAALDRARRLARTRGIRAAIHELRRAKAAHPAHAAEWDALIAELEAIRRELGREVAKILKEEKE
B18: traf2_out_17_162_1592 (protein)
chain: SELEERVREFEERLEELEKKLKELKEKLKKIDELSKEELTDLLVEASEARREARELLEEIRELREELPEERYEELAERAEELAEEFQRIANKFYNKLLEK
B19: traf2_out_20_3_2262 (protein)
chain: DELRAKAEAALAEAEALLAELAPRLPAADAARLQELLDAAKAAFATDLRDALVYLSELRRLALALAEEARAAGDAALAAALEALADAVGRAANYVYKIIE
B20: traf2_out_11_155_763 (protein)
chain: SEKQEIYREYNDKVSEIADELEAFLEEVIAEVAKRDPEVAARARAVLAAHRDASARSRALLLARVLREAGLEEEAKRVEEAIEEAQKKMNEIAIETEKKL
B21: traf2_out_20_3_2230 (protein)
chain: EELKKKAEEALEKALKKLKEIIKEADPETAKVLTALLKELEKAKELDPVDRLVVVSKVRRTLLELAQKAKAAGNEELAKKLEEAAELLQRLAQLLYEIIE
B22: traf2_out_13_95_1066 (protein)
chain: SRETARKINELADKAEEKALALLDEARAALADDPEAVAALDEARRLAETRGIRAAIDALRQARAANPAHAAEFDALIAELEAIRRELGREVAKILKEAEE
B23: traf2_out_16_104_1372 (protein)
chain: DPALVAQAQAAIAEAQKAIEEAQKVLNELYKKYEKASPEEKVKLSDKMVEISEARRKVQQLVQELQALLASGADPAAIQAAIAKLQAAIKELKKLIEEAK
B24: traf2_out_13_95_1143 (protein)
chain: SAEVAKKIMEIADRMLAEKDAILDELEAELEARGLLTPEVAAALAAARRSSIRTAIHRLRELAERLPEARELLEAAIERLEAIQREAGREVAKILKEEEE
B25: traf2_out_20_3_2206 (protein)
chain: EELEEQLEKELERALKLLKEAAKLADEETKKVLEELIKELKESRKLSYEDRLVTLSEIRRKVRELALAARAAGDEELAAVLDEAADELQRAMNLVYKIIE
B26: traf2_out_13_95_1141 (protein)
chain: SAEVAAKINAIADRLLAEKDAILDELEAQLKAAGLLTPELRAALEAAKRSSISTAIHRLRELAERYPEARAALEAAIARLEALRREAGREVAEILKEEKE
B27: traf2_out_1_27_1008 (protein)
chain: SDEEFRELLREADRKLGSLSPEEALAAAREAIREALERGVGEARHLAVVLILSQSDPELAAALLEAIEEVLREAGVSEEVIEEIRRRAESGQKRLDEARA
B28: traf2_out_20_3_2213 (protein)
chain: DELVAAVREQLAKIRELLEQARPRLAPEDYARLNALLARAEEALETDPSDALVALSELRRALLELAERARAAGDEELAKLLEEAAEAANKAANLVMQLLE
B29: traf2_out_13_95_1205 (protein)
chain: EEEKTKKLREVTNKIADDLIDFTEATADAIEAATGNAAYRDEILAALRRHGVRAAIALIREYAAADPAHAAVYEAAAAALEAKVREAGREVAKADKEIAE

Biological target: T1, TRAF2, Q12933
Experiment: median log2 fold change of GCK-ALFA target abundance (FLAG IP / Myc IP barcode read proportion) (log2 ratio); each designed protein is fused to an ALFA-tag nanobody in HEK293 cells to bring the named protein to FLAG-tagged glucokinase (GCK); Myc marks an untargeted standard; higher = target protein stabilised (more abundant)
Conditions: target protein: 3xFLAG-MCP-GCK-ALFA reporter; HEK293 landing pad (RPLP)
Procedure, shortened: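 HEK293 landing-pad cells received a recombined binder library fused to the ALFA nanobody and were induced with 2 μg mL^−1 doxycycline, then transfected with a plasmid encoding a FLAG-tagged target and a Myc-tagged standard. Lysates were collected after 48 h for anti-FLAG and anti-Myc immunoprecipitation, and the circular RNA barcodes were reverse transcribed, amplified and sequenced. Target abundance for each binder is the median log2 ratio of FLAG to Myc barcode read proportions. Barcodes had to reach a proportion of at least 10^−7 in both replicates, each binder needed at least 3 barcodes per replicate, a pseudocount of 10^−6 was applied, and the two replicates were pooled.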

| Binder | median log2 fold change |
| --- | --- |
| B1 | 0.112 |
| B2 | 0.185 |
| B3 | 0.223 |
| B4 | -0.7 |
| B5 | 0.289 |
| B6 | 0.242 |
| B7 | 0.373 |
| B8 | 0.373 |
| B9 | 0.267 |
| B10 | -0.516 |
| B11 | 0.215 |
| B12 | -0.0162 |
| B13 | 0.213 |
| B14 | 0.107 |
| B15 | 0.267 |
| B16 | 0.281 |
| B17 | -0.256 |
| B18 | -0.162 |
| B19 | 0.219 |
| B20 | 0.299 |
| B21 | -0.000551 |
| B22 | -0.00811 |
| B23 | -0.0761 |
| B24 | -0.392 |
| B25 | 0.411 |
| B26 | -0.98 |
| B27 | 0.198 |
| B28 | 0.129 |
| B29 | 0.149 |

From the supplement of paper PMC12632987
